Measured values taken from paper PMC4336329 (PLoS ONE, 2015).
Among all 310,000 compounds or so, about 2,200 (0.71%) showed an effect of 50% or more. Effects have a minus sign here. This is one part of the list.

Molecular target: human ether-à-go-go-related gene (hERG) potassium channel (human, UniProt Q12809)
Assay: primary screen, population patch clamp on CHO cells stably expressing hERG

Chain of human ether-à-go-go-related gene (hERG) potassium channel (Q12809 whole entry, looked up): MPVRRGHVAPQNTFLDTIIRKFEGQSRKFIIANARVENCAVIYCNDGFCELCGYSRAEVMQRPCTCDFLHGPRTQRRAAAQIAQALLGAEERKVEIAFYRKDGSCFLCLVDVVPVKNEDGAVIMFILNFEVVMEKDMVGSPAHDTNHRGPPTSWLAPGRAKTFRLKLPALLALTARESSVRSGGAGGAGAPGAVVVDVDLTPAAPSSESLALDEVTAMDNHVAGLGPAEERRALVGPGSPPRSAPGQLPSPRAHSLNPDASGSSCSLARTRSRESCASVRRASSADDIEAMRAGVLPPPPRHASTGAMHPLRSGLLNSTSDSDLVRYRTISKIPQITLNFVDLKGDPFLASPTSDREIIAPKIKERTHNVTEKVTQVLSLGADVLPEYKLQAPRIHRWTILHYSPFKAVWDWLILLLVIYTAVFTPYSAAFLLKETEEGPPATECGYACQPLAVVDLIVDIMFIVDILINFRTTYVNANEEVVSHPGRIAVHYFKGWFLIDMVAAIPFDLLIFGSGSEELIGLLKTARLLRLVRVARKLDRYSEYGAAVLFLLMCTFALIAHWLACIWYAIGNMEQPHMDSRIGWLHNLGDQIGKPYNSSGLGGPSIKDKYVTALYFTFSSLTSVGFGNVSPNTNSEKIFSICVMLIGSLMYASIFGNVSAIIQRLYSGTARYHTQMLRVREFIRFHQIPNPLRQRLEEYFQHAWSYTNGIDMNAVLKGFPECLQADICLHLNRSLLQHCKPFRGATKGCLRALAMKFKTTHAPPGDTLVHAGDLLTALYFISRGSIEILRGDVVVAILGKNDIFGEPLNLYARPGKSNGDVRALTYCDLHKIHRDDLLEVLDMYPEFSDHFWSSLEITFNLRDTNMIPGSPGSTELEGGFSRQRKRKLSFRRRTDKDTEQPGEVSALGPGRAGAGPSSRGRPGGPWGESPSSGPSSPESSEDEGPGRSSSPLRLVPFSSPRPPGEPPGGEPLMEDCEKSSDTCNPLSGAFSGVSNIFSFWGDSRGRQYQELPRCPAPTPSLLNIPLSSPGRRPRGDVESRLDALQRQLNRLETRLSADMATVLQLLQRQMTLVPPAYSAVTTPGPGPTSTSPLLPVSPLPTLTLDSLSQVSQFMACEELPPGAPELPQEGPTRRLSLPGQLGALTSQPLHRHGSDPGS

| Compound | hERG current change (%, negative = inhibition) at 1uM [%] |
| --- | --- |
| COc1ccccc1N1CCN(C2CCCN(C(=O)CCn3cncn3)C2)CC1 (stereo not drawn) | 7.68 |
| CC(C)(C)c1ccc(C(=O)Oc2ccc3c(c2)OCC3=O)cc1 | 7.97 |
| Cc1cc(O)c(S(=O)(=O)c2ccccc2)c(C)c1NS(=O)(=O)c1ccccc1 | 5.39 |
| O=C1COc2ccc(S(=O)(=O)N3CCC(C(=O)NCc4ccc(F)cc4)CC3)cc2N1 | 14.7 |
| CCOc1ccc(Cl)cc1CNCCc1ccccc1F.Cl | 3.82 |
| NC(=O)[C@@H]1CCCN1C(=O)c1cc(COc2ccc(F)cc2F)on1 | 19 |
| CCN1CCc2nc(NC(=O)C(c3ccccc3)c3ccccc3)sc2C1 | 3.73 |
| Nc1ncccc1OCc1cccc(C(F)(F)F)c1 | 0.817 |
| CC(=O)c1cn(Cc2ccccc2)c(=O)[nH]c1=O | 6.88 |
| CCCCCc1ccc(-c2cn(CCCOCc3ccccc3)nn2)cc1 | 7.45 |
| CCOC(=O)C1=C(C)SC2=NS(=O)(=O)CCN21 | 14.7 |
| O=C1NCCCC1C(=O)Nc1ccccc1C(F)(F)F (stereo not drawn) | 3.93 |
| CC(=O)Nc1ccc([As](=O)(O)c2ccc([N+](=O)[O-])cc2)cc1 | -0.171 |
| O=C(Nc1cc2c3c(c1)CC(=O)N3CCC2)c1cccc(F)c1 | 0.498 |
| Cc1nn(CC(=O)N2CCN(C)CC2)c(=O)c2c1sc1ccccc12 | 4.18 |
| CCOc1ccc2c(C)c(Cl)c(=O)oc2c1 | 6.1 |
| Cc1cnc(C(=O)NCc2ccc(F)cc2)cn1 | 14.1 |
| CC(C)c1c(C(=O)N/N=C/c2ccoc2)nnn1-c1nonc1N | 8.01 |
| O=C(NC1CCCC1)C(c1cccnc1)N(C(=O)c1csnn1)c1ccc(F)cc1 (stereo not drawn) | 0.77 |
| Nn1c(SCC(=O)N2CCc3ccccc3C2)nnc1-c1cccs1 | -2.06 |
| CCOC(=O)C(=CNc1cc(C)ccc1C)C(=O)OCC | 7.01 |
| CC(=O)c1cc2c(cc1NC(=O)CCNC(=O)c1ccccc1Cl)OCO2 | 4.36 |
| CC(C)OCCCNC(=O)c1ccc(NC(=O)C2=CSCCO2)cc1 | 10.2 |

| Compound | hERG current change (%, negative = inhibition) at 1uM [%] |
| --- | --- |
| COc1cc(/C=C2\CCC/C(=C\c3ccc(O)c(OC)c3)C2=O)ccc1O | 13 |
| CCCCOC(=O)c1ccc(NC(=O)CSc2nncn2C)cc1 | 7.9 |
| O=C(NCc1ccc(N2CCCC2=O)cc1)Nc1ccccc1 | 14.8 |
| CCN1CCN(c2nc(S(=O)(=O)c3ccc(C)cc3)c(Cl)s2)CC1.Cl | 1.63 |
| COc1ccc(C(=O)NC2CC(C)(C)Cc3c2cnn3-c2ccccc2C)o1 (stereo not drawn) | -13.7 |
| COC(=O)c1c(NC(=O)COc2ccc(Cl)cc2)sc2c1CC(C)(C)NC2(C)C | 8.23 |
| CCn1ccnc1CN(C)C(=O)c1ccc2nc(Cc3ccc(OC)cc3)oc2c1 | 8.7 |
| O=C(O)c1cccnc1SC1CC(=O)N(c2cccc(C(F)(F)F)c2)C1=O (stereo not drawn) | 9.75 |
| O=C(Oc1ccccc1/C=C\C(=O)c1cc2ccccc2o1)c1ccccc1 | 9.81 |
| COC(=O)c1scc(S(=O)(=O)c2ccccc2)c1N | 18.3 |
| COc1cccc(-c2nc(CS(=O)(=O)CC(=O)NCc3ccccc3)c(C)o2)c1 | 3.5 |
| O=C(CC(c1ccccc1)c1ccccc1)OCn1nnc2ccccc2c1=O | 11.7 |
| O=C(Nc1ncccn1)c1cc(-c2ccc(F)cc2)nc2ccccc12 | -1.76 |
| CCn1c(Cc2ccccc2)nnc1SCC(=O)NC(C)(C)C | -3.93 |
| Cc1ccc(NC(=O)CCCNC(=O)c2ccc(Cl)cc2)c(Br)c1 | 13.7 |
| CCC1CCCCN1CCCNC(=O)c1ccc2c(=O)n(CCOC)c(=O)[nH]c2c1 (stereo not drawn) | 13.3 |
| CCOC(=O)C1=C(CCc2ccccc2)NC(=O)NC1c1ccc2ccccc2c1 (stereo not drawn) | 10.6 |
| CCN1C(=O)[C@@H]2[C@@H](c3ccc(-c4ccc(Cl)c(Cl)c4)c(OC)c3)N3CCC[C@@]3(C(=O)OC)[C@@H]2C1=O.O=C(O)C(F)(F)F | 13 |
| COc1ccc(OCC(O)CNS(=O)(=O)c2cccs2)cc1 (stereo not drawn) | 14.5 |
| COc1ccc(/C=N/NC(=S)NC2CCS(=O)(=O)C2)cc1 (stereo not drawn) | 15.8 |
| O=Cc1c(NCCc2ccc(F)cc2)c2ccccc2[nH]c1=O | 4.06 |
| C=CCn1c(SCC(=O)Nc2cc(C)on2)nnc1C1COc2ccccc2O1 (stereo not drawn) | -2.58 |
